Reference: patent US20210147571A1, “MONOCLONAL ANTIBODY TARGETING HUMAN TUMOR STEM CELLS AND USE THEREOF” (Suzhou Bojuhua Biomedical Technology Co. Ltd, priority 2017, published 2021)

Legend:
[1] = tested on: target antigen on the surface of MHCC-97L cells; assay: competitive inhibition cell ELISA; type: binding, human
Method: (§1) MHCC-97L cells were seeded in a 96-well culture plate (4×10^3 cells/well), and experiments were performed when the cells grew to 90% to 100%. After discarding the culture medium in the wells, the plate was washed with PBS containing 0.05% Tween-20, 300 μl/well, 1 min×5 times. The samples were then added based on the following design in duplicate, 100 μl/well, and incubated at 37° C. for 1.5 h. After discarding the liquid from the wells, the plate was washed with PBS containing 0.05% Tween-20, 300 μl/well, 1 min×5 times. Corresponding secondary antibodies against human IgG Fc-HRP (nonreactive with mouse IgG Fc) or against mouse IgG Fc-HRP (nonreactive with human IgG Fc) 1:5000 diluted was then added, 100 μl/well, and incubated for 1 h at 37° C. After discarding the liquid in the wells, the plate was washed with PBS containing 0.05% Tween-20, 300 μl/well, 1 min×3 times, and then washed again with pure water for two times. After shaking off the pure water, TMB was then added, 100 μl/well, and then incubated at 37° C. for 30 min for visualization; and then 2M H2504 was added, 50 μl/well. After that, the OD450 was measured by microplate reader.
as §1, with “added” for “added based on the following design”, “(not reactive” for “(nonreactive”, “μl/well.” for “μl/well. After that, the”

SNU-5 transplanted tumor = assay: human gastric cancer transplanted tumor treated with Hetumomab; type: in vivo, nude mice; conditions: one month
Method: Specifically, the sphere cells of the human gastric cancer cell line SNU-5-V13 were harvested and inoculated in nude mice at 2.5×10^5 cells/mouse. The mice were divided into following 7 groups, with 8 mice in each group: the PBS control group; the mouse IgG control group; the chemotherapy group (cisplatin 0.3 mg/kg); the high dose antibody Hetumomab group (20 mg/kg); the low dose Hetumomab group (1.25 mg/kg); the high dose Hetumomab+chemotherapeutic drug group; and the low dose Hetumomab+chemotherapeutic drug group. The antibody treatment was started on the second day after inoculation of gastric cancer cells.
The experimental groups and the control group were treated by intraperitoneal injection. The treatments were performed for one month. The chemotherapeutic drug group was treated for 4 weeks, twice a week. The major and minor diameters of the subcutaneously transplanted tumor were measured twice a week. The tumor volume was calculated with the formula V=(π/6)×(major diameter×minor diameter×minor diameter). The change in tumor volume in each group was observed.

CD44+ cells of SNU-5 = assay: Transwell invasion inhibition; type: cell-based, human; conditions: for Cells/Field of Vision (invasion): SNU-5 CD44+
Source text: (§2) High invasiveness is another important biological feature of cancer stem cells.

SPCA-1 sphere cells = assay: Transwell invasion inhibition; type: cell-based, human
Source text: as §2

[2] = tested on: CD90+ stem cells of MHCC97L; assay: two-color flow fluorimetry co-staining with CD90; type: binding, human
Source text: In order to detect liver cancer stem cells in human liver cancer cell line Bel7402-V13 cells reconginized by monoclonal antibody Hetumomab, which are also ESA and CD90 marker positive, we used two-color flow fluorimetry to stain the human liver cancer cell line Bel7402-V13 cells after culture for 5 days in a serum-free medium.
That is, Hetumomab recognized 40.2% of ESA^+ stem cells. Human liver cancer MHCC97L cells cultured for 5 days in a serum-free medium were stained.

[3] = tested on: target antigen of Hetumomab in human liver cancer tissues; assay: immunohistochemistry of liver tissues; type: binding
Source text: By using conventional immunohistochemical techniques, the expression of the target antigen of Hetumomab in many human liver cancer, lung cancer, gastric cancer patients and other related tissues was detected by taking Hetumomab as the primary antibody, and the anti-mouse antibody as the secondary antibody.
By using Hetumomab as the primary antibody, the expression of the target antigen of Hetumomab was detected in human liver cancer tissues of 120 cases, para-carcinoma tissues of 20 cases, normal liver tissues of 10 cases, hepatitis tissues of 10 cases and hepatic cirrhosis tissues of 40 cases.

A549 cells = assay: flow immunofluorescence, positive cells in parental and sphere cells; type: binding, human
Method: (§3) The human lung cancer cell line SPCA-1 and A549 cells were cultured for 5 days in a serum-free manner, and the Hetumomab^+ cells in the parental cells and in the cells from sphere culture were detected by viable cell flow fluorescence cytometry. […] That is, after the serum-free culture, Hetumomab^+ cells of the lung cancer cell line were enriched.

SPCA-1 cells = assay: as above; type: binding, human
Method: as §3

B1: Hetumomab: mouse monoclonal antibody (IgG1, κ) against human tumor stem cells, hybridoma CGMCC NO. 12251; VL SEQ ID NO:1, VH SEQ ID NO:5 (antibody, V domains shown)
VH: QVTLKESGPGILQPSQTLSLTCSFSGFSLSTSGMGVSWIRQPSGKGLEWLAHIYWDDDKRYNPSLKSRLTISKDSSNNQVFLKITSVDTADTATYYCARSFYYYANNSFAYWGQGTLVTVSS
VL: DIVMTQAAFSNPVTLGTSASISCRSSKSLLHSNGITYLYWFLQKPGQSPQLLIYQMSNLASGVPDRFSSSGSGTDFTLRISRVEAEDVGVYYCAQNLELYTFGGGTKLEIK
modifications: Hetumomab heavy chain variable region; Hetumomab light chain variable region
[1]; 0.25 μg/ml Hetumomab + 0 μg/ml Hetuximab, anti-mouse IgG Fc-HRP, Table 25
  Average OD450: 2.278
[1]; antibody alone 0.25 μg/ml, anti-human IgG Fc-HRP, Table 24
  Average OD450: 0.082
[1]; antibody alone 0.25 μg/ml, anti-mouse IgG Fc-HRP, Table 25
  Average OD450: 2.168
[1]; antibody alone 0.5 μg/ml, anti-human IgG Fc-HRP, Table 24
  Average OD450: 0.082
[1]; antibody alone 0.5 μg/ml, anti-mouse IgG Fc-HRP, Table 25
  Average OD450: 2.361
[1]; antibody alone 1 μg/ml, anti-human IgG Fc-HRP, Table 24
  Average OD450: 0.112
[1]; antibody alone 1 μg/ml, anti-mouse IgG Fc-HRP, Table 25
  Average OD450: 2.523
[1]; antibody alone 2 μg/ml, anti-human IgG Fc-HRP, Table 24
  Average OD450: 0.133
[1]; antibody alone 2 μg/ml, anti-mouse IgG Fc-HRP, Table 25
  Average OD450: 2.674
[1]; antibody alone 4 μg/ml, anti-human IgG Fc-HRP, Table 24
  Average OD450: 0.161
[1]; antibody alone 4 μg/ml, anti-mouse IgG Fc-HRP, Table 25
  Average OD450: 2.702
[1]; antibody alone 8 μg/ml, anti-human IgG Fc-HRP, Table 24
  Average OD450: 0.177
[1]; antibody alone 8 μg/ml, anti-mouse IgG Fc-HRP, Table 25
  Average OD450: 2.726
[1]; antibody alone 16 μg/ml, anti-human IgG Fc-HRP, Table 24
  Average OD450: 0.210
[1]; antibody alone 16 μg/ml, anti-mouse IgG Fc-HRP, Table 25
  Average OD450: 2.818
[1]; inhibiting binding of 0.25 ug/ml Hetuximab
  IC50 of mouse monoclonal antibody, Hetumomab Vs Hetuximab: 3.138 µg/mL
[1]; inhibiting binding of 0.25 ug/ml Hetuzumab H5L6
  IC50 of mouse monoclonal antibody, Hetumomab Vs Hetuzumab H5L6: 1.178 µg/mL
[1]; inhibiting binding of 0.25 ug/ml Hetuzumab H5L11
  IC50 of mouse monoclonal antibody, Hetumomab Vs Hetuzumab H5L11: 0.9757 µg/mL
[1]; inhibiting binding of 0.25 ug/ml Hetuzumab H5L12
  IC50 of mouse monoclonal antibody, Hetumomab Vs Hetuzumab H5L12: 0.1902 µg/mL
SNU-5 transplanted tumor; High Dose 20 mg/kg i.p.
  Tumor Volume Inhibition Rate (%): 57.62%
SNU-5 transplanted tumor; Low Dose 1.25 mg/kg i.p.
  Tumor Volume Inhibition Rate (%): 30.68%
CD44+ cells of SNU-5; SNU-5 CD44+ cells vs PBS
  inhibition rate of invasion: 75.8%
CD44+ cells of SNU-5; antibody 10 μg/ml
  Cells/Field of Vision (invasion): 146 ± 3.5
CD44+ cells of SNU-5; antibody 20 μg/ml
  Cells/Field of Vision (invasion): 124 ± 3.0
CD44+ cells of SNU-5; antibody 40 μg/ml
  Cells/Field of Vision (invasion): 108 ± 5.0
CD44+ cells of SNU-5; antibody 80 μg/ml
  Cells/Field of Vision (invasion): 93 ± 2.5
CD44+ cells of SNU-5; antibody 144 μg/ml
  Cells/Field of Vision (invasion): 56 ± 4.0
SPCA-1 sphere cells; SPCA-1, antibody 200 μg/ml
  Cells/Field of Vision (invasion): 205.7 ± 8.5
SPCA-1 sphere cells; SPCA-1, antibody 400 μg/ml
  Cells/Field of Vision (invasion): 171.3 ± 4.9
SPCA-1 sphere cells; SPCA-1, antibody 800 μg/ml
  Cells/Field of Vision (invasion): 153.0 ± 6.1
SPCA-1 sphere cells; SPCA-1 sphere cells vs PBS
  inhibition rate of invasion: 34.1%
[2]
  Co-staining ratio with CD90: 2.01%
  share of CD90+ stem cells recognized: 44.3%
[2]; 5 days serum-free
  Hetumomab+ cell ratio: 2.38%
[3]; Hepatic Cirrhosis
  Proportion of Positive Cases (%): 0%
[3]; Hepatitis
  Proportion of Positive Cases (%): 0%
[3]; Liver Cancer Para-carcinoma Tissue
  Proportion of Positive Cases (%): 0%
[3]; Liver Cancer Tissue, 120 cases
  Proportion of Positive Cases (%): 79.17%
[3]; Normal Liver Tissue
  Proportion of Positive Cases (%): 0%
A549 cells
  Fold Enrichment: 1.84
  ratio of positive cells, Cells from Sphere Culture: 13.30%
  ratio of positive cells, Parental Cells: 7.23%
SPCA-1 cells
  Fold Enrichment: 4.22
  ratio of positive cells, Cells from Sphere Culture: 7.34%
  ratio of positive cells, Parental Cells: 1.74%
